# Measured values as given in the supplement of paper PMC8728848.
# The other results are listed elsewhere or left out.
# Assays:
# Experiment in all cases: glycan array binding signal (z-score within array); higher = stronger binding
# Conditions in all cases: glycan notation: IUPAC condensed, linker removed; mutation: R74S
# [1] = molecular target: Fuc(a1-2)[GalNAc(a1-3)]Gal(b1-3)GlcNAc(b1-3)GalNAc
# How it was run: (§1)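 Columns mapping to the same glycan were averaged after glycan names were converted to IUPAC-condensed notation. The data come from 3228 arrays in the Consortium for Functional Glycomics database, limited to those with an available protein sequence. Binding is reported as a within-array Z-score averaged across arrays of one protein sequence and across linkers.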
# [2] = molecular target: Fuc(a1-2)[GalNAc(a1-3)]Gal(b1-3)GlcNAc(b1-6)GalNAc
# How it was run: as §1
# [3] = molecular target: Fuc(a1-2)[GalNAc(a1-3)]Gal(b1-4)Glc
# How it was run: as §1
# [4] = molecular target: Fuc(a1-2)[GalNAc(a1-3)]Gal(b1-4)GlcNAc
# How it was run: as §1
# [5] = molecular target: Fuc(a1-2)[GalNAc(a1-3)]Gal(b1-4)GlcNAc(b1-2)Man
# How it was run: as §1
# [6] = molecular target: Fuc(a1-2)[GalNAc(a1-3)]Gal(b1-4)GlcNAc(b1-2)Man(a1-3)[Fuc(a1-2)[GalNAc(a1-3)]Gal(b1-4)GlcNAc(b1-2)Man(a1-6)]Man(b1-4)GlcNAc(b1-4)GlcNAc
# How it was run: as §1
# [7] = molecular target: Fuc(a1-2)[GalNAc(a1-3)]Gal(b1-4)GlcNAc(b1-2)Man(a1-3)[Fuc(a1-2)[GalNAc(a1-3)]Gal(b1-4)GlcNAc(b1-2)Man(a1-6)]Man(b1-4)GlcNAc(b1-4)[Fuc(a1-6)]GlcNAc
# How it was run: as §1
# [8] = molecular target: Fuc(a1-2)[GalNAc(a1-3)]Gal(b1-4)GlcNAc(b1-3)Gal(b1-4)GlcNAc
# How it was run: as §1
# [9] = molecular target: Fuc(a1-2)[GalNAc(a1-3)]Gal(b1-4)GlcNAc(b1-3)Gal(b1-4)GlcNAc(b1-3)Gal(b1-4)GlcNAc
# How it was run: as §1
# [10] = molecular target: Fuc(a1-2)[GalNAc(a1-3)]Gal(b1-4)GlcNAc(b1-3)GalNAc
# How it was run: as §1
# [11] = molecular target: Fuc(a1-2)[GalNAc(a1-3)]Gal(b1-4)GlcNAc(b1-3)[Fuc(a1-2)[GalNAc(a1-3)]Gal(b1-4)GlcNAc(b1-6)]GalNAc
# How it was run: as §1
# [12] = molecular target: Fuc(a1-2)[GalNAc(a1-3)]Gal(b1-4)GlcNAc(b1-6)GalNAc
# How it was run: as §1
# [13] = molecular target: Fuc(a1-2)[GalNAc(a1-3)]Gal(b1-4)[Fuc(a1-3)]GlcNAc
# How it was run: as §1
# [14] = molecular target: Fuc(a1-2)[GalNAc(a1-3)]Gal(b1-4)[Fuc(a1-3)]GlcNAc(b1-3)GalNAc
# How it was run: as §1
# [15] = molecular target: Fuc(a1-2)[GalNAc(a1-4)]Gal(b1-4)GlcNAc
# How it was run: as §1
# [16] = molecular target: Fuc(a1-2)[GalNAc(b1-3)]Gal
# How it was run: as §1
# [17] = molecular target: Fuc(a1-3)GlcNAc
# How it was run: as §1
# [18] = molecular target: Fuc(a1-3)[Gal(b1-4)]Glc6S
# How it was run: as §1
# [19] = molecular target: Fuc(a1-3)[Gal(b1-4)]GlcNAc
# How it was run: as §1
# [20] = molecular target: Fuc(a1-3)[Gal(b1-4)]GlcNAc(b1-2)Man
# How it was run: as §1
# [21] = molecular target: Fuc(a1-3)[Gal(b1-4)]GlcNAc(b1-2)Man(a1-3)[Fuc(a1-3)[Gal(b1-4)]GlcNAc(b1-2)Man(a1-6)]Man(b1-4)GlcNAc(b1-4)GlcNAc
# How it was run: as §1
# [22] = molecular target: Fuc(a1-3)[Gal(b1-4)]GlcNAc(b1-2)Man(a1-3)[Fuc(a1-3)[Gal(b1-4)]GlcNAc(b1-2)Man(a1-6)]Man(b1-4)GlcNAc(b1-4)[Fuc(a1-6)]GlcNAc
# How it was run: as §1
# [23] = molecular target: Fuc(a1-3)[Gal(b1-4)]GlcNAc(b1-3)Gal(b1-3)[Fuc(a1-4)]GlcNAc
# How it was run: as §1
# [24] = molecular target: Fuc(a1-3)[Gal(b1-4)]GlcNAc(b1-3)Gal(b1-4)[Fuc(a1-3)]GlcNAc
# How it was run: as §1
# [25] = molecular target: Fuc(a1-3)[Gal(b1-4)]GlcNAc(b1-3)Gal(b1-4)[Fuc(a1-3)]GlcNAc(b1-3)Gal(b1-4)[Fuc(a1-3)]GlcNAc
# How it was run: as §1
# [26] = molecular target: Fuc(a1-3)[Gal(b1-4)]GlcNAc(b1-3)GalNAc
# How it was run: as §1
# [27] = molecular target: Fuc(a1-3)[Gal(b1-4)]GlcNAc(b1-6)GalNAc
# How it was run: as §1
# [28] = molecular target: Fuc(a1-3)[Gal(b1-4)]GlcNAc(b1-6)[Gal(b1-3)GlcNAc(b1-3)]Gal(b1-4)Glc
# How it was run: as §1
# [29] = molecular target: Fuc(a1-3)[Gal(b1-4)]GlcNAc6S
# How it was run: as §1
# [30] = molecular target: Fuc(a1-3)[Gal3S(b1-4)]Glc
# How it was run: as §1
# [31] = molecular target: Fuc(a1-3)[Gal3S(b1-4)]GlcNAc
# How it was run: as §1
# [32] = molecular target: Fuc(a1-3)[Gal3S(b1-4)]GlcNAc6S
# How it was run: as §1
# [33] = molecular target: Fuc(a1-3)[GalNAc(b1-4)]GlcNAc
# How it was run: as §1
# [34] = molecular target: Fuc(a1-3)[GalNAc(b1-4)]GlcNAc6S
# How it was run: as §1
# [35] = molecular target: Fuc(a1-4)GlcNAc
# How it was run: as §1
# [36] = molecular target: Fuc(b1-3)GlcNAc
# How it was run: as §1
# [37] = molecular target: Gal(a1-2)Gal
# How it was run: as §1
# [38] = molecular target: Gal(a1-3)Gal
# How it was run: as §1
# [39] = molecular target: Gal(a1-3)Gal(b1-3)GlcNAc
# How it was run: as §1
# [40] = molecular target: Gal(a1-3)Gal(b1-3)GlcNAc(b1-2)Man
# How it was run: as §1
# [41] = molecular target: Gal(a1-3)Gal(b1-3)GlcNAc(b1-2)Man(a1-3)[Gal(a1-3)Gal(b1-3)GlcNAc(b1-2)Man(a1-6)]Man(b1-4)GlcNAc(b1-4)GlcNAc
# How it was run: as §1
# [42] = molecular target: Gal(a1-3)Gal(b1-3)GlcNAc(b1-3)GalNAc
# How it was run: as §1
# [43] = molecular target: Gal(a1-3)Gal(b1-3)GlcNAc(b1-6)GalNAc
# How it was run: as §1
# [44] = molecular target: Gal(a1-3)Gal(b1-3)[Fuc(a1-4)]GlcNAc(b1-2)Man(a1-3)[Gal(a1-3)Gal(b1-3)[Fuc(a1-4)]GlcNAc(b1-2)Man(a1-6)]Man(b1-4)GlcNAc(b1-4)GlcNAc
# How it was run: as §1
# [45] = molecular target: Gal(a1-3)Gal(b1-4)Glc
# How it was run: as §1
binder,measurement,setting,value
Gal 7 (Homo sapiens) (protein) MSNVPHKSSLPEGIRPGTVLRIRGLVPPNASRFHVNLLCGEEGGSDAALHFNPRLDTSEVVFNSKEGGSWGREESGPGVPFGRGQPFEVLIIASDDGFKAVVGDAQYHHFRHRLPLARVRLVEVGGDVQLDSVRIF,glycan array binding signal (z-score),[1],0.093
same,glycan array binding signal (z-score),[2],-0.444
same,glycan array binding signal (z-score),[3],-0.228
same,glycan array binding signal (z-score),[4],-0.307
same,glycan array binding signal (z-score),[5],-0.473
same,glycan array binding signal (z-score),[6],-0.5
same,glycan array binding signal (z-score),[7],-0.12
same,glycan array binding signal (z-score),[8],-0.309
same,glycan array binding signal (z-score),[9],-0.239
same,glycan array binding signal (z-score),[10],-0.503
same,glycan array binding signal (z-score),[11],-0.447
same,glycan array binding signal (z-score),[12],-0.44
same,glycan array binding signal (z-score),[13],-0.451
same,glycan array binding signal (z-score),[14],0.514
same,glycan array binding signal (z-score),[15],-0.094
same,glycan array binding signal (z-score),[16],0.008
same,glycan array binding signal (z-score),[17],-0.382
same,glycan array binding signal (z-score),[18],1.23
same,glycan array binding signal (z-score),[19],-0.151
same,glycan array binding signal (z-score),[20],0.269
same,glycan array binding signal (z-score),[21],-0.808
same,glycan array binding signal (z-score),[22],0.63
same,glycan array binding signal (z-score),[23],0.23
same,glycan array binding signal (z-score),[24],0.555
same,glycan array binding signal (z-score),[25],-0.321
same,glycan array binding signal (z-score),[26],-0.359
same,glycan array binding signal (z-score),[27],0.614
same,glycan array binding signal (z-score),[28],0.106
same,glycan array binding signal (z-score),[29],0.188
same,glycan array binding signal (z-score),[30],0.388
same,glycan array binding signal (z-score),[31],-0.686
same,glycan array binding signal (z-score),[32],0.706
same,glycan array binding signal (z-score),[33],-0.103
same,glycan array binding signal (z-score),[34],-0.03
same,glycan array binding signal (z-score),[35],0.052
same,glycan array binding signal (z-score),[36],0.172
same,glycan array binding signal (z-score),[37],-0.586
same,glycan array binding signal (z-score),[38],-0.55
same,glycan array binding signal (z-score),[39],-0.429
same,glycan array binding signal (z-score),[40],-0.53
same,glycan array binding signal (z-score),[41],0.885
same,glycan array binding signal (z-score),[42],0.122
same,glycan array binding signal (z-score),[43],-0.463
same,glycan array binding signal (z-score),[44],1.56
same,glycan array binding signal (z-score),[45],0.28
